# Among all 350,000 compounds or so, about 31,000 (8.9%) were called active. Inconclusive means that the source gave no clear call. Such entries were picked first, then a sample of the others. The call rests on the fitted dose curve; in most records, active means well fitted inhibition curve with a large enough effect; inconclusive means small, poorly fitted or top-dose-only effect; inactive means no such curve, though single readings can be large or run the other way. A potency beside an inconclusive call is a rough fit, not a confirmed value.
# Biological target: Histone-lysine N-methyltransferase EHMT2 (Homo sapiens) (UniProt Q96KQ7)
# Sequence of UniProt Q96KQ7 (Q96KQ7 whole entry, looked up): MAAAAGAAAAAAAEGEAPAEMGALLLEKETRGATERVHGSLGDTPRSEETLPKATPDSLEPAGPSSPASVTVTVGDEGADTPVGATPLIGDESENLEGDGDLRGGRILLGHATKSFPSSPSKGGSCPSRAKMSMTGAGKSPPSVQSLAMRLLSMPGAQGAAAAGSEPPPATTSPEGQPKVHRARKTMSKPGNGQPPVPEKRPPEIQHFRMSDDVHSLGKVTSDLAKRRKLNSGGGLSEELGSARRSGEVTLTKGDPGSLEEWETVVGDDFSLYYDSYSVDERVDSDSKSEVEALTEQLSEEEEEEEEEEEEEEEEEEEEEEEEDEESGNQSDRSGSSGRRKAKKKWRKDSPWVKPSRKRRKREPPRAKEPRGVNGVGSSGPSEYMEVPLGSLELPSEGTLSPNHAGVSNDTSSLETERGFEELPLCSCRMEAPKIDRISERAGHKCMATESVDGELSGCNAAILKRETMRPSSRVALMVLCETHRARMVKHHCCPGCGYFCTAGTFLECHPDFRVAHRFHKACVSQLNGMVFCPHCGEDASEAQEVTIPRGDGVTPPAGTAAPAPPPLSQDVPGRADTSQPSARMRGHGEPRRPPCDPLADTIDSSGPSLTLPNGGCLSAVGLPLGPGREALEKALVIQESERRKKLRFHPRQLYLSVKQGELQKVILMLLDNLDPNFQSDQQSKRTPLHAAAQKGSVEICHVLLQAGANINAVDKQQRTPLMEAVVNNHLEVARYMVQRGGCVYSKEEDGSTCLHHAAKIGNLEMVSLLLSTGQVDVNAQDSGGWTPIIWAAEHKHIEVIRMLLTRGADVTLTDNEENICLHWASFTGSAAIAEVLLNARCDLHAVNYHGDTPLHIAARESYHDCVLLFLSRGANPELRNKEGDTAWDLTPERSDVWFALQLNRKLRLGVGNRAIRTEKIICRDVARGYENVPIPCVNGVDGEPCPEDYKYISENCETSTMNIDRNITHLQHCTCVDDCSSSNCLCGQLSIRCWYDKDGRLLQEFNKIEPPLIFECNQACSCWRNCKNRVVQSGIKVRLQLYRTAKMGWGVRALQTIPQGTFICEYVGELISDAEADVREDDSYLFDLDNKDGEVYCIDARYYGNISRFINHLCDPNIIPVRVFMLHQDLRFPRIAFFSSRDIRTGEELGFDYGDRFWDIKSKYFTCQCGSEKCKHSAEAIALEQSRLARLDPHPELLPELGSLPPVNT
# Test: qHTS Assay for Inhibitors of Histone Lysine Methyltransferase G9a; further: nearly all actives have a fitted effect of over 75% in size
# Settings: G9a H3K9 monomethylation, AlphaScreen, 2 h; activity, negative = inhibition: at 59 µM (top of the series) unless noted
# Procedure, shortened: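 Readings reflect AlphaScreen signal from monomethyl-H3K9 antibody detection. HMT at 20 nM; substrate b-H3K9 500 nM; cofactor SAM 20 uM; 2 h RT reaction; compounds tested as titrations in qHTS with 15 min preincubation.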
# On the % scale 0 is the no-effect control and ±100 the full control effect; potency means the concentration at half of the fitted maximal effect; tags describe the fitted curve by direction and shape.
SMILES,"activity, negative = inhibition",Potency
CCOC(=O)c1c(C)oc2c1cc(O)c1ccccc12,inactive: -7.87% [at 102 µM],
Cc1nn(C)c(C(=O)NNC(=S)Nc2ccc(F)cc2)c1[N+](=O)[O-],,"inconclusive: 89.1 µM [inhibitor, single point]"
CCN1CCN(c2cc(C)c3cc(NC(=O)/C=C/c4cccc(OC)c4OC)ccc3n2)CC1,,"inconclusive: 6.31 µM [inhibitor, partial curve, poor fit]"
CC(=O)c1ccc(S(=O)(=O)NC2CC(=O)N(c3ccc(C)c(C)c3)C2)cc1 (centres undefined),,"inconclusive: 63.1 µM [inhibitor, partial curve, poor fit]"
CCN(CC)S(=O)(=O)c1cccc(NC(=O)CNc2cccc(S(=O)(=O)N3CCOCC3)c2)c1,,"inconclusive: 79.4 µM [inhibitor, single point]"
CN(c1ccc(F)cc1)S(=O)(=O)N1CCCC(C(=O)NCCc2ccccc2)C1 (centres undefined),inactive: -21.8%,
CCc1ccccc1NC(=O)C1CCCN(c2ncccn2)C1 (centres undefined),inactive: 17.1% [at 102 µM],
COc1cccc(CN2CCC(C(=O)N3CCC(C)CC3)CC2)c1,,active: 17.8 µM
COCCCNS(=O)(=O)c1ccc(C)cc1,,"inconclusive: 89.1 µM [inhibitor, single point]"
CC(=O)/C(N=Nc1cccc(C(F)(F)F)c1)=C(\C)O,inactive: 2.41% [at 102 µM],
COc1ccc(C(=O)O)cc1NS(=O)(=O)c1cccc2nsnc12,,active: 3.98 µM
Cc1ccc(-n2c(-c3c(-c4ccccc4)noc3C)n[nH]c2=S)cc1,,active: 0.562 µM
C/C(=N\N=C(N)N)c1ccc(Cl)cc1Cl,,"inconclusive: 70.8 µM [inhibitor, single point]"
CCOc1ccc(/C=N/NC(=O)CSc2ccccn2)cc1O,inactive: 6.98% [at 102 µM],
COc1ccc(S(=O)(=O)c2c(O)c3ccc(C(=O)Nc4ccc(F)cc4F)cc3[nH]c2=O)cc1,,"inconclusive: 79.4 µM [inhibitor, single point]"
Cc1ccc(-c2cc(C(=O)NCCCN3CCOCC3)c3ccccc3n2)cc1C,,"inconclusive: 89.1 µM [inhibitor, single point]"
Cc1cc2cc(CCNC(=O)CCc3ccccc3)c(=O)[nH]c2cc1C,,"inconclusive: 35.5 µM [inhibitor, single point]"
N#CCCn1c(=O)c(-c2ccc(Cl)cc2)nc2cnc(N3CCOCC3)nc21,inactive: -1.63% [at 0.501 µM],
O=C(O)c1ccc(NC(=O)c2ccco2)c(NC(=O)c2ccco2)c1,,"inconclusive: 89.1 µM [inhibitor, single point]"
CN(CC#CC1(O)c2ccccc2-c2ccccc21)Cc1ccccc1,,active: 1.58 µM
CCCC1=C(C(=O)OCC)C(c2ccc(OC)c(CSc3ccccn3)c2)C(C#N)=C(N)O1 (centres undefined),,"inconclusive: 22.4 µM [inhibitor, single point]"
CC1CCN(c2ccc3nnc(CCC(=O)Nc4cccc(F)c4)n3n2)CC1,inactive: -10.2% [at 102 µM],
COc1ccc(C(C(O)C(=O)c2c[nH]c3ccccc23)N2CCN(c3ccc(OC)cc3)CC2)cc1 (centres undefined),,"inconclusive: 0.708 µM [inhibitor, partial curve, poor fit]"

SMILES,"activity, negative = inhibition",Potency
Cc1ccccc1N1CCN(C(=O)CCN2C(=O)c3ccccc3C2=O)CC1,inactive: 14.4% [at 0.0925 µM],
Cc1c(NC(=O)C2CC(c3c(F)cccc3Cl)=NO2)c(=O)n(-c2ccccc2)n1C (centres undefined),inactive: -5.85% [at 12.7 µM],
Nc1c(C(=O)OCC(=O)Nc2ccc(OC(F)F)cc2)[nH]c(=O)[nH]c1=O,,"inconclusive: 6.31 µM [inhibitor, single point]"
O=C(O)c1cc(S(=O)(=O)Nc2ccc(N3CCCCC3)cc2)ccc1Cl,inactive: -18.3%,
COCC(=O)N(CCN(C)C)Cc1cc2cc3c(cc2nc1Cl)OCO3,,"inconclusive: 70.8 µM [inhibitor, single point]"
CC1(c2ccccc2)NC(=O)N(CC(=O)Nc2cccc(/C=C/c3ccccn3)c2)C1=O (centres undefined),,"inconclusive: 89.1 µM [inhibitor, single point]"
Cc1ccc(C)n1-c1ccc(C(=O)Nc2ccccc2F)cc1,,"inconclusive: 79.4 µM [inhibitor, partial curve, poor fit]"
O=C(/C=C/c1ccco1)Nc1sc2c(c1C(=O)O)CCC2,inconclusive: -89.8% [inhibitor],
Cc1[nH]c2ccccc2c1CCN(Cc1cccnc1)C(=S)Nc1cccc(F)c1,,active: 50.1 µM
O=C(CN(C(=O)c1csnn1)c1cccc(C(F)(F)F)c1)NCCc1ccccc1,inactive: -1.67% [at 102 µM],
O=c1[nH]nc2c3ccccc3cnn12,inactive: -0.128%,
O=c1[nH]c2cc3c(cc2cc1C(c1nnnn1C1CCCCC1)N1CCSCC1)OCCO3 (centres undefined),,"inconclusive: 39.8 µM [inhibitor, single point]"
CC(=O)Nc1ccc(NC(=O)C(C)OC(=O)/C(C#N)=C/c2ccc(N(C)C)cc2)cc1 (centres undefined),,"inconclusive: 89.1 µM [inhibitor, partial curve, poor fit]"
O=C(NNS(=O)(=O)c1ccccc1)c1cccnc1,inactive: 22.4%,
C=Cc1c(C)/c2[n-]/c1=C\c1[n-]c(c(CC)c1C)/C=c1\[n-]c3c(c1C)C(=O)C(C(=O)[O-])C=3c1[n-]c(c(C)c1CCC(=O)[O-])\C=2.[Cu].[Na+].[Na+] (centres undefined),inconclusive: -124% [inhibitor] [at 2.33 µM],
CC(C)CCc1noc(CN(C)CCC2CCOCC2)n1,,"inconclusive: 28.2 µM [inhibitor, partial curve, poor fit]"
O=C(COC(=O)[C@@H]1CCCN1C(=O)c1cccs1)Nc1ccc(F)cc1[N+](=O)[O-],,"inconclusive: 0.891 µM [inhibitor, full curve, poor fit]"
Cn1c(=O)[nH]c(=O)c2c1nc(SCC(=O)O)n2CCc1ccccc1,,"inconclusive: 63.1 µM [inhibitor, single point]"
COC1(OC)C(=N/O)/C(=N\O)CCC1O (centres undefined),,active: 11.2 µM
COc1ccc(-c2cc(-c3ccccc3)nc(=O)[nH]2)cc1,,"inconclusive: 79.4 µM [inhibitor, single point]"
Cc1nn(CCc2n[nH]c(=S)n2C)c(C)c1Br,,"inconclusive: 7.08 µM [inhibitor, full curve, poor fit]"
O=C(COc1cccc2ccccc12)Nc1ccc(Cl)cc1C(=O)O,,active: 79.4 µM
Cc1cc(OCC(=O)NCCc2c[nH]c3ccccc23)c2c(C)cc(=O)oc2c1,inactive: -1.62% [at 12.7 µM],

SMILES,"activity, negative = inhibition",Potency
COc1ccc(N2CCN(CC(O)COc3cc(C)cc(C)c3)CC2)cc1 (centres undefined),,active: 39.8 µM
Nc1ccc(-c2nc3c(Cl)cc(N)cc3[nH]2)cc1,,"inconclusive: 89.1 µM [inhibitor, single point]"
O=C1CC(c2ccccc2)=Nc2ccccc2N1,inactive: 3.38% [at 12.7 µM],
CC(C)(C)n1nc2c(c1NC(=O)CCCc1ccccc1)CS(=O)C2 (centres undefined),,"inconclusive: 89.1 µM [inhibitor, single point]"
COc1ccc(S(=O)(=O)NC2CC(=O)N(c3ccc(C)c(C)c3)C2)cc1C (centres undefined),,"inconclusive: 56.2 µM [inhibitor, partial curve, poor fit]"
COc1ccc(/C=C/C(=O)NCCc2nc3ccccc3[nH]2)cc1,inactive: 0.228% [at 102 µM],
CN(CC(=O)Nc1ccc(N2CCOCC2)cc1)C(=O)c1cccc(Cl)c1Cl,,"inconclusive: 31.6 µM [inhibitor, partial curve, poor fit]"
COC(=O)c1ccccc1NC(=O)COC(=O)c1ccco1,inactive: 8.67% [at 102 µM],
O=C1CC(=O)Nc2cc(S(=O)(=O)N3CCN(c4ccc([N+](=O)[O-])cc4)CC3)ccc2N1,,active: 12.6 µM
COc1ccccc1CN1C[C@@H]2C[C@@H](c3[nH]c4c(C)cccc4c3C)N3CCC[C@@]23C1=O,,active: 44.7 µM
COc1cccc(CNc2ncnc3cc(OC)c(OC)cc23)c1,,"inconclusive: 22.4 µM [inhibitor, single point]"
Cc1cc2c(cc1S(=O)(=O)N1CCN(c3cccc(C)c3C)CC1)OCCN2C,,active: 35.5 µM
O=c1[nH]c(CN2CCN(S(=O)(=O)c3ccc4c(c3)OCCO4)CC2)nc2sc3c(c12)CCCC3,,"inconclusive: 70.8 µM [inhibitor, single point]"
COc1cccc(N2CCN(Cc3nnnn3C3CCCCC3)CC2)c1,,"inconclusive: 44.7 µM [inhibitor, partial curve]"
COCCN=c1scc(-c2cc(OC)c(OC)c(OC)c2)n1/N=C/c1c(C)[nH]c2ccccc12,,"inconclusive: 20 µM [inhibitor, partial curve, poor fit]"
CCN(CC(=O)NCc1ccc(F)cc1)Cc1cc(=O)n2ccsc2n1,,active: 44.7 µM
C/C(=N\Nc1ccc(C(=O)c2c(C)cc3ccccn23)cc1[N+](=O)[O-])c1ccc(O)cc1,inconclusive: -63.1% [inhibitor],
Fc1ccc2[nH]c3c(N4CCN(c5ccccc5)CC4)ncnc3c2c1,,"inconclusive: 25.1 µM [inhibitor, single point]"
Cc1ccc(-c2nc(C#N)c(N3CCC(C(N)=O)CC3)o2)cc1,inactive: -6.37% [at 102 µM],
CCc1cccc(NC(c2ccccc2)c2nnc(-c3ccccc3F)o2)c1 (centres undefined),inactive: 8.86%,
Cc1ccc(CNc2ccc(N3C(=O)CC(C)C3=O)cc2[N+](=O)[O-])cc1 (centres undefined),,"inconclusive: 39.8 µM [inhibitor, single point]"
O=C(Nc1cccnc1)c1cccc(-c2cc3ccccc3oc2=O)c1,inactive: -1.15% [at 102 µM],
Cc1cccc(OCC(=O)N2CCN(c3nnc(-c4ccccc4)c4ccccc34)CC2)c1,,"inconclusive: 39.8 µM [inhibitor, partial curve, poor fit]"
